# PubChem BioAssay AID686978 (National Center for Advancing Translational Sciences (NCATS), 2013)
# Values joined by “and” are separate entries in the source; they are usually repeats but may differ in a detail not shown here. Equal values may be shown once. The whole screen tested about 420,000 compounds, of which about 64,000 (15%) were called active. The inconclusive results got no clear call from the source; some entries with a clear call stand among them for comparison. The call rests on the fitted dose curve; in most records, active means well fitted inhibition curve with a large enough effect; inconclusive means small, poorly fitted or top-dose-only effect; inactive means flat fitted curve, though single readings scatter. A potency beside an inconclusive call is a rough fit, not a confirmed value.
# Experiment: qHTS for Inhibitors of human tyrosyl-DNA phosphodiesterase 1 (TDP1): qHTS in cells in absence of CPT; further: nearly all actives have a fitted effect of over 55% in size
# Conditions: DT40 Tdp1-/- hTDP1 cells, no CPT, ATP luminescence, 48 h; activity change, negative = growth inhibition: at 46.2 µM (top of the series) unless noted
# How it was run: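 Seeded 400 DT40-hTDP1 cells/well (vehicle DMSO, no 20 nM CPT); pinned compounds; ≥48 hr at 37 °C; CellTiter-Glo luminescence as viability measure.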
# On the % scale 0 is the no-effect control and ±100 the full control effect; potency means the concentration at half of the fitted maximal effect; tags describe the fitted curve by direction and shape.
Compound,Potency,"activity change, negative = growth inhibition"
Cc1ccc(S(=O)(=O)N2CCC(C(=O)Nc3cc(C)ccc3C)CC2)cc1,"inconclusive: 18.4 µM [inhibitor, single point]",
O=C1NC(=S)N/C1=C\c1ccc(N2CCOCC2)cc1,"inconclusive: 20.6 µM [inhibitor, single point]",
CN(CC(=O)Nc1cccc(F)c1)CC(=O)Nc1cccc([N+](=O)[O-])c1,"inconclusive: 16.4 µM [inhibitor, single point]",
NN=C1c2ccccc2-c2ccc(N)cc21,"inconclusive: 23.1 µM [inhibitor, single point]",
COc1ccccc1OCC(O)Cn1c(=N)n(Cc2ccccc2)c2ccccc21 (stereo not given),active: 8.2 µM,
CCO[C@H]1OC(C(=O)N2CCN(Cc3ccc4c(c3)OCO4)CC2)=C[C@@H](C2CCCCC2)[C@@H]1CCCO,active: 16.4 µM,
Cc1[nH]c(=O)c(S(=O)(=O)c2ccccc2)c(C)c1Cl,,inactive: 9.71%
CC(C)(C)OC(=O)N1CCC(CC2CC(c3ccc(Cl)cc3)=NO2)(C(=O)NCC2CCCCC2)CC1 (stereo not given),active: 16.4 µM,
Cc1cccc(N2C(=O)CC(n3ccnc3)C2=O)c1C (stereo not given),,inactive: 6.96%
Cn1c(C(=O)O)c(CC(=O)NCc2cccnc2)c2ccccc21,,inactive: -8.33%
CCOC(=O)c1c(NC(=O)C2CCCO2)sc(C(=O)OC(C)(C)C)c1C (stereo not given),"inconclusive: 25.9 µM [inhibitor, single point]",
Cc1cccc(Nc2nnc(SCC(=O)NCC3CCCO3)s2)c1 (stereo not given),,inactive: -19.6%
COc1cccc(-c2cnc(NCc3cc(Cl)ccc3O)n2C)c1,"inconclusive: 29.1 µM [inhibitor, single point]",
O=S(=O)(Nc1ccc2nc(N3CCOCC3)sc2c1)c1ccc(Cl)cc1,"inconclusive: 29.1 µM [inhibitor, single point]",
Nc1cc(Cl)ccc1C(=O)OCC(=O)NCc1cccs1,"inconclusive: 23.1 µM [inhibitor, single point]",
CCn1nc(C)c(CN2CCc3c([nH]c4ccccc34)C2C(C)(C)C)c1C (stereo not given),"inconclusive: 29.1 µM [inhibitor, single point]",
COc1cc(NC(=O)c2cccs2)c(OC)cc1NC(=O)CCn1nnc2ccccc21,"inconclusive: 20.6 µM [inhibitor, single point]",
Cc1cc(SCC(=O)NC2CCCC2)nc2ccccc12,,inactive: -0.63%
COc1ccc(CN2CCCCCC2)cc1Br,,inactive: -22.6%
O=C(CSc1c2c(nc3ccccc13)CCC2)Nc1ccc(F)cc1F,"inconclusive: 29.1 µM [inhibitor, single point]",
COc1ccccc1/C=C/C(=O)OCC(=O)Nc1ccccc1Sc1ccccc1,"inconclusive: 16.4 µM [inhibitor, single point]",
O=C(c1cnn(C(=O)c2ccco2)c1)c1ccccc1O,"inconclusive: 29.1 µM [inhibitor, single point]",
Cc1ccc(C2(C(=O)N3CCC(n4nc(-c5ccccc5)oc4=O)CC3)CC2)cc1,"inconclusive: 13 µM [inhibitor, partial curve]",
CCC1(C)OC(=O)N2CCc3c(C)[nH]c4c(C)ccc(c34)C21C (stereo not given),"inconclusive: 29.1 µM [inhibitor, single point]",

Compound,Potency,"activity change, negative = growth inhibition"
Nc1ccc(C(=O)O)cc1,"inactive and inconclusive: 29.1 µM [inhibitor, single point]",
CCOC(=O)c1[nH]c(C)c(CCC(=O)NCc2cccc(Cl)c2)c1C,"inconclusive: 16.4 µM [inhibitor, single point]",
COc1ccccc1CNC(=O)C1CCCN(S(=O)(=O)c2cccc3nsnc23)C1 (stereo not given),"inconclusive: 18.4 µM [inhibitor, partial curve]",
CCN(C(=S)NC(=O)c1ccccc1Br)C1CCCCC1,"inconclusive: 29.1 µM [inhibitor, single point]",
COC(=O)c1ccc([C@@H]2Nc3c(cccc3C(F)(F)F)[C@@H]3C=CC[C@@H]32)cc1,"inconclusive: 29.1 µM [inhibitor, single point]",
O=S(=O)(c1ccccc1)N1CCN(C(=S)Nc2ccccc2)CC1,,inactive: -3.64%
O=C(Nc1nc2ccccc2s1)c1cc2c(s1)-c1ccccc1OC2,"inconclusive: 13 µM [inhibitor, partial curve, poor fit]",
CC(C)CC(=O)NC(=S)Nc1ccc(N2CCCC2)c(Cl)c1,,inactive: -13.8%
O=C(Cc1c(F)cccc1Cl)Nc1ccc(S(=O)(=O)N2CCCC2)cc1,"inconclusive: 29.1 µM [inhibitor, single point]",
COC(=O)[C@]12CCCCC=C1N(Cc1ccco1)C(=O)[C@H](CC(=O)NCCC(C)C)C2,"inconclusive: 13 µM [inhibitor, single point]",
COc1ccc(NC(=O)CSCC(=O)NC2(C)CCS(=O)(=O)C2)cc1 (stereo not given),,inactive: -0.352%
Cc1ccc(C(=O)Nc2ccc(C)c(S(=O)(=O)Nc3ccccc3Cl)c2)s1,"inconclusive: 1.3 µM [inhibitor, partial curve, poor fit]",
CN(CC(=O)Nc1cc(S(=O)(=O)N2CCCC2)ccc1Cl)Cc1cccs1,active: 16.4 µM,
O=C(Cn1nnc(-c2ccccc2)n1)N/N=C/c1cc([N+](=O)[O-])ccc1O,active: 4.11 µM,
COc1ccccc1CCNC(=O)Cc1c(C)c2c(O)cc(C)cc2oc1=O,,inactive: -30.7%
Cc1cc(C)cc(NC(=O)C2CCCC2)c1,,inactive: -2.02%
NS(=O)(=O)c1cc(C(=O)N=Nc2c(O)[nH]c3ccccc23)ccc1Cl,active: 18.4 µM,
Cc1ccccc1NC(=S)NC(=O)Cc1ccc(Cl)cc1,"inconclusive: 23.1 µM [inhibitor, single point]",
CCOC(=O)c1c(C)[nH]c(C(=O)OCC(=O)NCc2ccc(F)cc2)c1C,"inconclusive: 29.1 µM [inhibitor, single point]",
COc1ccc(-c2cc3ccc(OCC(=O)NCC4CCC(C(=O)O)CC4)cc3oc2=O)cc1 (stereo not given),,inactive: -9.58%
COc1ccc(-c2noc(-c3ccccc3Cl)n2)cc1OC,,inactive: -18.3%
CC(C)[Si]1(C(C)C)OCC2OC(n3cnc4c(N)ncnc43)C(N)C2O[Si](C(C)C)(C(C)C)O1 (stereo not given),active: 11.6 µM,
O=C(c1cc(COc2ccc(F)c(F)c2)on1)N1CCOCC1,"inconclusive: 1.3 µM [inhibitor, full curve, poor fit]",
c1csc(-c2nc(-c3ccc(-c4ccon4)s3)no2)c1,"inconclusive: 0.0058 µM [inhibitor, full curve, poor fit]",

Compound,Potency,"activity change, negative = growth inhibition"
Cc1ccccc1OCC(=O)N1CCc2ccccc2C1,"inconclusive: 29.1 µM [inhibitor, single point]",
COC(=O)c1ccc(NC(=O)C(=O)N2CCN(C(=S)NCCc3ccccc3)CC2)cc1,"inconclusive: 18.4 µM [inhibitor, single point]",
CCn1cc2nc(SCC(=O)Nc3ccc(OC)cc3OC)n(Cc3ccc(OC)cc3)c(=O)c2n1,active: 2.59 µM,
COc1ccc(OC)c(CNC(=O)C2CCCN(c3ncnc4c3nc3n4CCCCC3)C2)c1 (stereo not given),"inconclusive: 18.4 µM [inhibitor, single point]",
CC(=O)Oc1ccc2c(=O)c(-c3ccccc3)coc2c1,"inconclusive: 7.31 µM [inhibitor, partial curve]",
COc1ccc2c(c1)c1nnc(SCCN3CCOCC3)nc1n2C,active: 15.8 µM,
COc1cc(C2Nc3ccccc3C(=O)N2c2ccccc2)c(Br)cc1OCC(=O)O (stereo not given),,inactive: -20.8%
COc1ccc(Cl)c(-c2cc(C(=O)Nc3ccccc3)[nH]n2)c1,active: 16.4 µM,
COc1ccc2cc(-c3ccccc3F)ncc2c1,"inconclusive: 13 µM [inhibitor, partial curve]",
COc1ccccc1-n1nc(C)c(-c2ccccc2)c1N,"inconclusive: 29.1 µM [inhibitor, single point]",
CCOC(=O)[C@]12CCC=C1N(CCC1=CCCCC1)C(=O)[C@H](CC(=O)NCc1cccs1)C2,"inconclusive: 25.9 µM [inhibitor, single point]",
C[C@@H]1CN([C@H](C)CO)C(=O)CCCn2cc(nn2)CO[C@H]1CN(C)C(=O)C1CC1,,inconclusive: -28.6% [inhibitor]
CC(C)C[C@@H](CN1CCC[C@H]1CN1C(=O)C(=O)NC[C@@H]1Cc1ccccc1)N1C[C@H](Cc2ccc(O)cc2)N(CC2CCCCC2)C(=O)C1=O,"inconclusive: 29.1 µM [inhibitor, single point]",
Cn1c(SCCc2ccc([N+](=O)[O-])cc2)nccc1=O,"inconclusive: 25.9 µM [inhibitor, single point]",
CCc1cc(=O)oc2c3c(cc(OCC(=O)NCCCn4ccnc4)c12)OC(C)(C)CC3,"inconclusive: 25.9 µM [inhibitor, single point]",
CCN(CC)c1ccc(NC(=O)COC(=O)/C=C/c2nc3ccccc3s2)cc1,"inconclusive: 29.1 µM [inhibitor, single point]",
CCN(CC)CCOC(=O)c1ccc(NC(=O)C(C)NC(=O)C23CC4CC(CC(C4)C2)C3)cc1 (stereo not given),"inconclusive: 29.1 µM [inhibitor, single point]",
CNC(=O)C(=O)NCC1OCCN1S(=O)(=O)c1ccc(OC)c(OC)c1 (stereo not given),,inactive: 2.34%
O=C(NC1CCCCCC1)c1[nH]c(C(F)(F)F)nc1-c1ccccc1,"inconclusive: 29.1 µM [inhibitor, single point]",
CCCCC(CC)C(=O)NCC(C)NC(=O)C(CC)CCCC (stereo not given),"inconclusive: 25.9 µM [inhibitor, single point]",
CCCc1cc2c(cc1NC(=O)c1ccc(C)cc1)OCO2,,inactive: -12.1%
COc1ccc([N+](=O)[O-])cc1NC(=O)CSc1nc(C)c(C)c(C)n1,"inconclusive: 16.4 µM [inhibitor, partial curve]",
